The BET-seq Pho4 binding data (Le et al. 2018)
This is one part of the list. These are noisy estimates, calculated here from bound and input reads.

target: T1, Pho4 (S. cerevisiae) (UniProt P07270); test: relative binding free energy (BET-seq); higher = weaker binding; settings: reference: library average
T1 sequence: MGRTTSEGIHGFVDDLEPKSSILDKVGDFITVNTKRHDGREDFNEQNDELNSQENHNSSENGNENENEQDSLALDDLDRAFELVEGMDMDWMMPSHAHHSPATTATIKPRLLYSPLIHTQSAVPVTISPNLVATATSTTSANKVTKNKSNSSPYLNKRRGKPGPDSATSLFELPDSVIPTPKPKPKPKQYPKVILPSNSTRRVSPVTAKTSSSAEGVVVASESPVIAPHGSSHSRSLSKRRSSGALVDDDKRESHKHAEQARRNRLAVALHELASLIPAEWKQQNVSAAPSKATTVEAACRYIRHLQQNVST

| Sequence | relative binding free energy [kJ/mol] |
| --- | --- |
| GTTTGCACGTGATTTT | 0.544 |
| GGGATCACGTGGCGAT | 0.335 |
| CGTGTCACGTGCGTTG | 0.126 |
| ATTCTCACGTGTATTT | 0.962 |
| TCCGGCACGTGGAAGG | 0.377 |
| TTTTTCACGTGGTTAT | 1.21 |
| TAAGGCACGTGGGTGG | -0.92 |
| GGGCTCACGTGGGTAA | 0.335 |
| CAAGGCACGTGGGATG | -0.251 |
| TTTGCCACGTGAGGGC | 0.628 |
| TGAGGCACGTGTTACT | -0.628 |
| TTTCGCACGTGAGTAT | 0.251 |
| GGTTACACGTGGATGC | 0.711 |
| GACGGCACGTGAGGGC | 0.544 |
| CACAGCACGTGTGTGT | 0.0837 |
| ATCGACACGTGAGGGG | 0.502 |
| TTATACACGTGAGTCT | 1.05 |
| TCTTACACGTGTGTGC | 1.09 |
| CGGCGCACGTGGTTGG | -0.544 |
| TTATGCACGTGGGATG | -0.46 |
| AGCGGCACGTGTTGAA | 0.0418 |
| GGTGGCACGTGGGACA | -0.92 |
| AATGTCACGTGGATGT | 0.0837 |

| Sequence | relative binding free energy [kJ/mol] |
| --- | --- |
| TGGGACACGTGCTGCG | -0.628 |
| AGGTTCACGTGGAGGC | 1.13 |
| GTTTACACGTGATGTA | 1.88 |
| TTTCGCACGTGGCGAT | -0.293 |
| AGTTACACGTGGCTAG | 0.0837 |
| AGTAGCACGTGACTGG | 0.0837 |
| AAGGTCACGTGGTAAC | 1.38 |
| ACGTTCACGTGAGGAG | 1 |
| CGGGACACGTGATCGG | 0.46 |
| GGCGGCACGTGGATAG | -0.293 |
| TGGAGCACGTGCGCTT | -0.209 |
| TGGGCCACGTGTCGGG | 0.126 |
| TTAAGCACGTGGTAAT | -1.05 |
| GTTGTCACGTGTTACC | 1.46 |
| GGGTTCACGTGTAGAG | 1.51 |
| TTGTACACGTGGGCCG | -0.46 |
| TGTTGCACGTGATATT | 0.544 |
| TGTGGCACGTGGAGTG | -0.293 |
| TTATGCACGTGGAAGG | -0.126 |
| GTAATCACGTGGCGTA | 0.669 |
| TGGTTCACGTGGATAG | 1.42 |
| TTTATCACGTGGATGT | 0.502 |
| GTACACACGTGAGGGG | 0.753 |

| Sequence | relative binding free energy [kJ/mol] |
| --- | --- |
| TGAATCACGTGGTGCG | 0.418 |
| TGTTTCACGTGTCTCT | 0.879 |
| GTTGACACGTGAATTG | 1.51 |
| GCTTGCACGTGCTTTG | 0.209 |
| GCAGGCACGTGTTTGT | -0.293 |
| ATTTTCACGTGCATTT | 0.879 |
| TGTCCCACGTGTTGGA | -0.335 |
| CTGGGCACGTGAATTT | 1 |
| ATAGTCACGTGGTGGA | -0.502 |
| CTTTTCACGTGGGGAC | 1.3 |
| CGTTGCACGTGTGGCT | -0.293 |
| AAGTACACGTGTTTTT | 0.628 |
| TTGTACACGTGATCGT | 0.126 |
| TTGGCCACGTGGACGG | -0.502 |
| TTGACCACGTGCGGGG | -0.335 |
| TGGGACACGTGTAAAG | 0.335 |
| GATAACACGTGTTGGT | 0.418 |
| AGGGTCACGTGGGTTC | 0.46 |
| AGTTCCACGTGGGATG | 0.628 |
| GGGGTCACGTGGGCTA | -0.0837 |
| TGTAGCACGTGAAATG | 1.34 |
| TTGAACACGTGGAGAG | 0.502 |
| GATTGCACGTGTCTTG | 0.711 |

| Sequence | relative binding free energy [kJ/mol] |
| --- | --- |
| CGTGTCACGTGGTAAA | 0.126 |
| TTGTACACGTGTTAGA | 0.46 |
| TGGTTCACGTGAACTT | 1.38 |
| TCGATCACGTGAGTTT | 1.38 |
| TTGAACACGTGTAATT | 0.293 |
| AGGATCACGTGTCGTA | 0.628 |
| CGGCGCACGTGTTTGG | -0.251 |
| TTGTCCACGTGTCGTT | 0.46 |
| TTAATCACGTGCTTAG | 0.628 |
| GCTTGCACGTGGGATG | -0.377 |
| GTTAACACGTGGTTGC | -0.251 |
| TTGCTCACGTGGCGGT | 0.962 |
| GGATACACGTGCGTGG | 0.0418 |
| GGTGTCACGTGAAGGA | 1.72 |
| CAGTTCACGTGCAGGT | 1.46 |
| AATGTCACGTGCGGAG | 0.126 |
| TTGAGCACGTGCATGT | -0.502 |
| GCTTACACGTGTTGGG | 0.377 |
| TCGGACACGTGATGGT | 1 |
| AGGTACACGTGGTTGG | 0 |
| TGCGGCACGTGTAAGT | -0.46 |
| TGTTCCACGTGAGTAT | 0.335 |
| TTACGCACGTGGTATG | -1.05 |

| Sequence | relative binding free energy [kJ/mol] |
| --- | --- |
| TGAAACACGTGTGTTC | 0.209 |
| TATTCCACGTGGGCGG | -0.418 |
| GTTCGCACGTGGGTCT | -0.502 |
| TATCGCACGTGGTTTG | -0.795 |
| GCGGGCACGTGGAATA | 0.126 |
| ACTGGCACGTGGGTGC | -0.795 |
| GTTAGCACGTGCTTAT | -0.126 |
| ACAGGCACGTGGGGTA | -1.42 |
| ACGGTCACGTGCGGCG | 0.46 |
| GCGCTCACGTGGGTTT | 0.251 |
| ATGGGCACGTGTATTG | -0.167 |
| TTGAGCACGTGTGTTA | -0.251 |
| GTCGCCACGTGAGGGT | 0.126 |
| AGATGCACGTGAATTT | 0.837 |
| GCTTTCACGTGGTAGT | 1.09 |
| GAGTTCACGTGTCGGG | 2.09 |
| CAAAGCACGTGCTGGG | 0.502 |
| GATAGCACGTGGGGGC | -0.502 |
| CCGTTCACGTGTTGTA | 1.3 |
| AAGGACACGTGGGTAG | -0.669 |
| ATCTACACGTGGTAGG | 0.335 |
| GAGGTCACGTGATATG | 0.669 |
| CGGGCCACGTGTTGGG | -0.0837 |
